Source: the supplement of paper PMC5499739
In all, about 16,000 sequences were measured (“Z-score”: median about -0.37, highest 2% from about 3.1 on). The list shows a part of the results.

Test system: RBM10 RRM1-ZnF-RRM2 (GST-tagged construct)
Assay: RNAcompete 7-mer binding Z-score; higher = stronger binding preference
How it was run: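 GST-tagged RBM10 constructs (20 pmol) were mixed with a designed pool of 241 399 RNAs up to 41 nt (1.5 nmol), transcribed from microarray-derived DNA templates. Mixing was in 1 ml Hepes pH 7.8 buffer with KCl, NaCl, glycerol, DTT, BSA and glutathione Sepharose beads. Binding ran 30 min at 4°C, followed by four 2-min washes at 4°C, and bound RNA was identified by microarray hybridisation. Each heptamer motif received a one-sided Z-score for enrichment across probes containing it.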

| Sequence | RNAcompete 7-mer binding Z-score |
| --- | --- |
| UUACUCA | -0.664 |
| GCUCGAG | -0.0488 |
| GGGUGUC | 2.11 |
| CAGACUU | -0.872 |
| AUCUGCU | -0.876 |
| CGCAAGC | -0.548 |
| GUGGUAC | 1.25 |
| GUUUUGU | 0.024 |
| GCUUCCA | -0.726 |
| UGAGUUA | 0.0204 |
| GCUACUG | -0.38 |
| GAUGAUC | -0.238 |
| GCGACGG | 1.59 |
| GUGACGG | 2.15 |
| AUUUCAG | -0.526 |
| GUGUUGA | 0.41 |
| GUGACAC | -0.0707 |
| UACCCGU | -0.737 |
| GGUAAAG | 3.35 |
| GACCCUU | -1 |
| UAUCUCU | -0.766 |
| AGUCUGG | 0.0641 |
| CACAACU | -0.668 |
| AUUGUCU | -0.77 |

| Sequence | RNAcompete 7-mer binding Z-score |
| --- | --- |
| CUACUAC | -0.865 |
| CUAUUUA | -0.901 |
| GUGCGCG | 0.712 |
| GCAACAG | 0.348 |
| CGACUGG | 0.192 |
| ACUCCUG | -0.744 |
| GUGGGGU | 4.45 |
| AUUCACC | -0.697 |
| CGCUCUC | -0.602 |
| CCCGGUG | 0.104 |
| AGGUAUA | 1.24 |
| CAUAGCU | -0.675 |
| UCAUGUG | -0.235 |
| CCUAGCU | -0.857 |
| UGCCAAA | -0.617 |
| ACCUGGU | -0.73 |
| CACGCUC | -0.541 |
| GUUCGGU | 0.148 |
| CCCAAUG | -0.595 |
| UCUCGAA | -0.624 |
| GCUGAUG | 0.0641 |
| CUUGUUG | -0.799 |
| UUGACCC | -0.701 |
| ACUGAGU | -0.107 |

| Sequence | RNAcompete 7-mer binding Z-score |
| --- | --- |
| CAGUAAG | 0.461 |
| AUGAGUA | 0.672 |
| CGAUGGC | 0.618 |
| GUACGGG | 2.96 |
| AGCGACA | 0.374 |
| GAGUGAG | 2.04 |
| AAGUAUU | -0.344 |
| GCUUAGG | 0.217 |
| AGAUCAC | -0.799 |
| CGGCCAU | -0.85 |
| UAGUAUC | -0.424 |
| UCAUUAU | -0.621 |
| GAGUGGU | 2.52 |
| AAAGCAA | 0.563 |
| GAGAGGC | 1.11 |
| GUUCUGA | -0.522 |
| ACACUCA | -0.686 |
| UUAAGUC | -0.562 |
| CGAUUUU | -0.799 |
| GCCCCAA | -0.653 |
| CUCACAC | -0.686 |
| ACUUACG | -0.723 |
| AUAUUAG | 0.0313 |
| GUUUUUG | -0.125 |

| Sequence | RNAcompete 7-mer binding Z-score |
| --- | --- |
| CCCGUCA | -0.683 |
| UGCUGCA | -0.464 |
| AGUGUAU | 0.479 |
| GUAUAUG | 0.195 |
| CAUCACA | -0.639 |
| GAAUGUU | -0.0306 |
| AAAGGAC | 2.6 |
| CAUCCUU | -0.832 |
| CAUUAGU | -0.347 |
| AGUCUCU | -0.679 |
| CGUCCUA | -0.759 |
| UUCCUGU | -0.843 |
| AGUUGGG | 2.77 |
| CGGCUCU | -0.73 |
| UAAGCCU | -0.879 |
| GACGGCU | -0.417 |
| UCUUGCA | -1.05 |
| GCAUAUG | 0.294 |
| GGUGCCG | 1.01 |
| AACCGCC | -0.868 |
| UUUAUGC | -0.792 |
| CCAGUUC | -0.726 |
| GGGUUGU | 1.97 |
| ACGGACC | 0.0677 |

| Sequence | RNAcompete 7-mer binding Z-score |
| --- | --- |
| UUACCUG | -0.766 |
| CCUGGCU | -0.73 |
| UGCAGGU | 0.982 |
| AGUAGAC | 0.286 |
| UUUUUGU | -0.628 |
| UCCCCAA | -0.639 |
| GGUCCCG | 0.286 |
| GAUCAAU | 0.0823 |
| CUCUCGA | -0.719 |
| UCUGAUG | -0.661 |
| UAACCAU | -0.526 |
| CAGAAAU | -0.628 |
| GUCGGGA | 1.31 |
| CGGCCAA | -0.369 |
| CGUACGG | 0.672 |
| AAACUAC | -0.475 |
| GGUACCA | 0.891 |
| UAAUGUU | -0.366 |
| UAUAAGA | -0.18 |
| CUAUAAG | -0.282 |
| ACAAUUC | -0.661 |
| CGCCGAA | -0.646 |
| GGCUGCG | 0.884 |
| CAGGUCA | 0.53 |

| Sequence | RNAcompete 7-mer binding Z-score |
| --- | --- |
| CGGCCGC | -0.49 |
| CAGCCAG | -0.3 |
| ACGUCUA | -0.632 |
| GCUCCGA | -0.65 |
| ACUAGUC | -0.544 |
| GCAACGC | -0.0379 |
| GAUAUAU | -0.078 |
| CAUAGAA | 0.0495 |
| CGUACCA | -0.504 |
| UUAUAUU | -0.639 |
| AUACGGA | 1.33 |
| UGUGCAC | -0.224 |
| UGAUUGC | -0.38 |
| UAUGUAA | -0.38 |
| UCGACCU | -0.85 |
| AAAGUGA | 1.05 |
| UUUGAAU | -0.639 |
| ACUCUCC | -0.806 |
| UACAUUU | -0.646 |
| UCUCUCG | -0.814 |
| AUUGCAC | -0.49 |
| CAACCUU | -0.963 |
| UCCUGGU | -0.548 |
| AUUUUUU | -0.788 |

| Sequence | RNAcompete 7-mer binding Z-score |
| --- | --- |
| AGGACGA | 0.778 |
| UUCUACA | -0.719 |
| UGUAUCG | -0.417 |
| CUUCAAU | -0.723 |
| GACCUCC | -0.938 |
| AAAAUCC | -0.57 |
| GGUAGUA | 1.23 |
| UUGCUGC | -0.632 |
| GAACAUA | -0.26 |
| GCCCGGC | -0.457 |
| UGACUGA | -0.103 |
| CCAGUCC | -0.832 |
| UUAGCUU | -0.661 |
| GAACCAC | -0.446 |
| CGCCCUC | -0.708 |
| UUCGACU | -0.694 |
| CAUUAAA | -0.515 |
| ACUAGAU | -0.42 |
| CCUUUUG | -0.959 |
| UAAUGGC | 0.377 |
| GUUGGUG | 2.12 |
| CUAAGCU | -0.854 |
| UGGCUCC | -0.588 |
| GGAGAAC | 1.93 |

| Sequence | RNAcompete 7-mer binding Z-score |
| --- | --- |
| AUGAUUG | 0.323 |
| CUUUUUC | -0.748 |
| UAAAGCC | -0.661 |
| GUGAUAU | 0.151 |
| GGACGAA | 0.986 |
| ACGAGUU | -0.0343 |
| AGCCCCA | -0.639 |
| CUUGGAA | -0.00877 |
| UACCUGC | -0.887 |
| UGGAUUG | 1.37 |
| AUAAACU | -0.537 |
| GCCCGAU | -0.679 |
| CAAUCAU | -0.562 |
| UUCAUGA | -0.581 |
| UAGGGGC | 2.34 |
| UCUUGUU | -0.766 |
| UAUCACU | -0.803 |
| GUACGAA | 0.308 |
| GCUGGGC | 0.567 |
| CGUGCCC | -0.548 |
| UCCCGCA | -0.726 |
| AUGUAUA | 0.0204 |
| UUGCACC | -0.632 |
| AACUGCG | -0.344 |

| Sequence | RNAcompete 7-mer binding Z-score |
| --- | --- |
| UGUACCG | -0.304 |
| CCUCUCU | -0.854 |
| AGUCGCG | -0.0634 |
| UGCGACC | -0.635 |
| AGCCACC | -0.715 |
| CAUUGUG | -0.213 |
| GCAGCGG | 2.14 |
| AAACUGU | -0.442 |
| UGGCCAA | -0.125 |
| UUCAUGC | -0.61 |
| AAGGCCU | -0.195 |
| GUUGACG | 0.396 |
| AACAAUG | 0.363 |
| GGACAAG | 2.12 |
| AGUGUCC | -0.482 |
| CCGAACG | -0.224 |
| GUGUUCC | -0.537 |
| CUAACCC | -0.766 |
| GCGGCAA | 0.592 |
| AAGGUCC | 0.76 |
| UGAAGGA | 2.95 |
| GUAGUAC | 0.399 |
| UCUGGAG | 0.0641 |
| AGAGGGC | 1.02 |

| Sequence | RNAcompete 7-mer binding Z-score |
| --- | --- |
| AAAGAGC | 0.377 |
| GUUGAAC | 0.119 |
| GGCUCAA | -0.122 |
| ACGACGG | 1.08 |
| CAGGUCU | -0.606 |
| CCUCGGU | -0.446 |
| AACGUAC | -0.384 |
| GCGUGUU | -0.224 |
| CGACUGU | -0.774 |
| UGGGCAU | 1.6 |
| GAUAUUG | 0.283 |
| ACGCGAC | -0.384 |
| UAAACCU | -0.708 |
| CCCGAUU | -0.854 |
| CUCAGAA | -0.446 |
| UCGCGUC | -0.449 |
| UUCGCAA | -0.817 |
| UCAAGUG | -0.0488 |
